{
  "source": "the RNAGym collection of RNA variant scans (doi:10.1093/nar/gkz1192)",
  "parents": {"B1": {"name": "CPEB3 Ribozyme (parent)", "chain": "UAACAGGGGGCCACAGCAGAAGCGUUCACGUCGCAGCCCCUGUCAGAUUCUGGUGAAUCUGCGAAUUCUGCUGUAUAUCUC"}},
  "note": "Read counts are not given, so values of variants with three or more changes are uncertain.",
  "data": [
    {"variants_of": "B1", "assay": "self-cleavage, relative activity (ratio to wild type); higher = more cleavage; in vitro, sequencing", "method_in_brief": "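Barcoded CPEB3 ribozyme mutants, produced by rounds of error-prone PCR, self-cleaved while being transcribed with T7 RNA polymerase for 5 hours at 37°C and during a subsequent 15 min DNase I step before EDTA was added. Sequencing of template-switched cDNA on Illumina gave cleaved and total reads, and DNA sequencing assigned barcodes to variants. Each variant's relative activity is its cleaved/total read fraction divided by the unmutated ribozyme's fraction, averaged across three batches. A variant needed a minimum of 5 reads.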", "values": [
      {"variant": "UAACCGGGUGCCACAGCAGAAGCGUUCUCGUCGCAGCCCCUGUCAGAUUCUGGUGAAUCUGCGAAUUCUGCUGUAUAUCUC", "note": "[A5C G9U A28U]", "self-cleavage": 0.08},
      {"variant": "UAACCGGGGGCCACAGCAGAAGCGUUCACGUCGCAGCCCCUGUCAGAUUUUGGUGAAUCUGCGAAUUCUGCCGUAUCUCUC", "note": "[A5C C50U U72C A77C]", "self-cleavage": 0.58},
      {"variant": "UAACCGGGGGCCACAGCAUAAGCGUCCACGACGCAGCCCCAGUCAGAUUCUGGUGAAUCUGCGAAUUCUGCUGUGUAUCUC", "note": "[A5C G19U U26C U31A U41A A75G]", "self-cleavage": 0.11},
      {"variant": "UAACCGGGGGCCACAGCAGAAGCGUUCACGUCGCAGGCCCUGUCAGAUUCUGGUGAAUCCGCGAAUUCUGCUGUAUAUCUC", "note": "[A5C C37G U60C]", "self-cleavage": 0.27},
      {"variant": "UAACCGGGGGCCAAAGCAGAAGCGUUCACGUCGCAGCCCCUGUCGGAUUCAGGUGAAUCUGCGAAUUCUGCUGUAUAUCUC", "note": "[A5C C14A A45G U51A]", "self-cleavage": 0.73},
      {"variant": "UAACCGGAGGCCACAGCAGAGGCGUUCACGUCGCAGCCCCUGUCAGAUCCUGGCGAAUCUGCGAAUUCUGCUGUAUAUCUC", "note": "[A5C G8A A21G U49C U54C]", "self-cleavage": 0.19},
      {"variant": "UAACCGGGGGCCACAGCAGAAGCGUUCACGUCGCAACCCCUGUCAGAUUCUGGUGAGUCUGCGAAUUCUGCUGUAUAUCUC", "note": "[A5C G36A A57G]", "self-cleavage": 0.33},
      {"variant": "UAACCGGAGGCCACAGCAGAGGCGUUCACGCCGCAGCCCCUGUCAGAUUCUGGUGAAUCUGCGAAUUCUGCUGUAUACCAC", "note": "[A5C G8A A21G U31C U78C U80A]", "self-cleavage": 0.04},
      {"variant": "UAACCGGGGGCCACAGCAGAAGCGUUCACGUCGCAGCCACUGUCAGAUUCCGGUGAGUCUGCGAGUUCUGCUGCAUAUCUC", "note": "[A5C C39A U51C A57G A65G U74C]", "self-cleavage": 0.09},
      {"variant": "UAACCCGAGGCCACAGCAGAAGCGUUCACGUCGCAGCCCCUGUCUGAUUCUGGUGAAUCUGCGAAUUCUGCUGUAUAUCUC", "note": "[A5C G6C G8A A45U]", "self-cleavage": 0.43},
      {"variant": "UAACCAGGGGCCACAGCAGAAGCGUUCACGUCGCGGCCCCUGCCAGAUUCUGGUGGAUCUGCGAAUUCUGCUGUACAUCUC", "note": "[A5C G6A A35G U43C A56G U76C]", "self-cleavage": 0.09},
      {"variant": "UAACCGGGAGCCAAAGCAGAAGCGUUCCCGUCCCAGCCCCUGUCGGAUUCUGGUGAAUCUGCGAAUUCUGCAGUAUAUCUC", "note": "[A5C G9A C14A A28C G33C A45G U72A]", "self-cleavage": 0.04},
      {"variant": "UAACCGGGGGCCACAGCAGAAGCGUUCACGUUGCAGCCCCUGUCAGAUUCUGGUGUAUCCGCGAAUUCUGCUGUAUAUCUC", "note": "[A5C C32U A56U U60C]", "self-cleavage": 0.47},
      {"variant": "UAACCGGGGGCGACAGCAGAAGCGUUCACGUCGCAGCCCCUGUCAAAUUCUGGUGAAUCUGCGAAUUCUGCUGUAUAUCUC", "note": "[A5C C12G G46A]", "self-cleavage": 0.34},
      {"variant": "UAACCGGGGGCCACAGCAGAAGCGUUCACGUCGCAGCCCCUGUCAGAUUCUGGUGAGUCUGCGAAUCCUGCUGUAAAUCUC", "note": "[A5C A57G U67C U76A]", "self-cleavage": 0.15},
      {"variant": "UAACCGGGGGCCACAGCAGAAGCGAUCAGGUCGCAGCCCCUGUCAGAUCCUGGUGAAUCUGCGAAUUCUGCUGCAUAUCGC", "note": "[A5C U25A C29G U49C U74C U80G]", "self-cleavage": 0.21},
      {"variant": "UAACCAGGGGCCACAGCAGAAGCGUUCACGUCGCAGCCCCUGUCAGAUUCUGGUGAAUCUGCGAACUCUGCUGUAUACCUC", "note": "[A5C G6A U66C U78C]", "self-cleavage": 0.06},
      {"variant": "UAACCGAGGGCCACAGCAGAAGCGUUCACGUCGCAGCCCCUGUCAGAUUCUGGUGAAUCUGCGAAUUCUGCAGUAUAUCUC", "note": "[A5C G7A U72A]", "self-cleavage": 0.18},
      {"variant": "UAACCGGGUGCCACAGCGGAAGCGUUCACGUCGCCGCCCCUGUCAGAUUCUGGUGAAUCCGCGAAUUCUGCUGUAUAUCUC", "note": "[A5C G9U A18G A35C U60C]", "self-cleavage": 0},
      {"variant": "UAACCGGGUGCCACAGCAGGAGCGCUCACGUCGCAGCGCCUGUCAGAUUCUGGUGAAUCUGCGAAUUCUGCUGUAUAUCUC", "note": "[A5C G9U A20G U25C C38G]", "self-cleavage": 0.07},
      {"variant": "UAACCGGGGGCCACAGCAGAAGCGUUCACGUCGUAGCCCCUGUCAGAUUCUGGUGAAUCUGCGAAUUCUGCCGUAUAUCUC", "note": "[A5C C34U U72C]", "self-cleavage": 0.44},
      {"variant": "UAACCGGGGGCCACAGCAGAAGCGAUCACGUCGCAGCCCCUGCCAGAUUCUGGUGAAUCUGCGAAUUCUGCUGUAUAUCCC", "note": "[A5C U25A U43C U80C]", "self-cleavage": 0.25},
      {"variant": "UAACCGGGGGCCAUAGCAGAGGCGUUCACGCCGCAGCCCCCGUCAGAUUCUGGUGAAUCUGCGAGUUCUGCUGUAUAUCUC", "note": "[A5C C14U A21G U31C U41C A65G]", "self-cleavage": 0.09},
      {"variant": "UAACCGGAGGCCACAGCAGAGGCGUUCACGUCGCAGCCCCUGUCUGAUUCGGGUGAAUCUGCGAAUUCUGCUGUAUAUCUC", "note": "[A5C G8A A21G A45U U51G]", "self-cleavage": 0.06},
      {"variant": "UAACCAGGGGCCUCAGCAGAAGGGUUCACGUCGCAGCCCCUGUCAGAUUCUGGUGAGUCUGCGAAUUCUGGUGUAUAUCUC", "note": "[A5C G6A A13U C23G A57G C71G]", "self-cleavage": 0.1},
      {"variant": "UAACCGGGAGCCACAGCAGAAGCGUUCACGUCGCUGCCCCGGUCAGAUUCUGGUGAAUCUGCGAAUUCUGCUGUAUAUCUC", "note": "[A5C G9A A35U U41G]", "self-cleavage": 0.31},
      {"variant": "UAACCGGGGGCCACAGCAGAAGCGUUAACGUCGCAGCCCCUGUCAGAUUCUGGUGAACCUGCGAAUUCUGCUGUUUAUCUC", "note": "[A5C C27A U58C A75U]", "self-cleavage": 0.33},
      {"variant": "UAACCGGGGGCCACAGCAGAAGCCUUCACGUCGCAGCCCCUGUCAGACUCUGGUGAAUCUGCGAAUUCUGCUGUAUAUCUC", "note": "[A5C G24C U48C]", "self-cleavage": 0.29},
      {"variant": "UAACCGGGGACCACAGCAGAGGCGUUCACGUCACAGCCCCUGUCAGAUUCUGGUGAAUCUGCGAAUUCUGCUGUAUAUCUC", "note": "[A5C G10A A21G G33A]", "self-cleavage": 0.08},
      {"variant": "UAACCGGGGGCCACAGCAGAAGCGCUCACGUCGCAGCCCCUGUCAGAUUCUGGUGAAUUUGCGAAUUCUGCCGUAUAUCUC", "note": "[A5C U25C C59U U72C]", "self-cleavage": 0.58},
      {"variant": "UAACCGGGGGCCACAGCAGAAGCGUUCACGUCGCAGCCCAUGUCAGAUUCUGGUGAAUCUGCGAAGUCUGCUGUAUAUCUC", "note": "[A5C C40A U66G]", "self-cleavage": 0.16},
      {"variant": "UAACCGGGGGCCACAGCAGAAGGGUUCACGUCGCAGCCCCUGUCAUAUUCUGGUGAAUCUGCGAAUUCUGCUGUAUAUCUC", "note": "[A5C C23G G46U]", "self-cleavage": 0.17},
      {"variant": "UAACCGGGGGCCACAGCACAAGCGUUCACGUCGCAGCCCAUGUCAGAUACUGGUGAAUCUGCGAAUUCUGCUGUAUAUCUC", "note": "[A5C G19C C40A U49A]", "self-cleavage": 0.1},
      {"variant": "UAACCGGGAGCCACAGCAGAAGCGUUCACGUCGCAGCCCCUGUCAGAUUCUGGUGGAUCUGCGAAUUCUGCUGUAUAUCUC", "note": "[A5C G9A A56G]", "self-cleavage": 0.12}
    ]}
  ]
}
